From the supplement of paper PMC10126150
Values marked as one replicate rest on one cluster of the flow cell; about a third of the high ones do not repeat.

Tested on: ATP
Assay: switch fluorescence ratio, 500 uM ATP over buffer (Cy3 cluster intensity, sum of 5 cycles each) (fold (ratio)); higher = stronger signal-on switching upon ATP binding; sequences stand for … in TCGTCGGCAGCGTCAGATGTGTATAAGAGACAGTTTTTTTTTTTTTTTTTTTTTTTTT…TC
Conditions: aptamer strand: ATP DNA aptamer (quencher-CACCTGGGGGAGTATTGCGGAGGAAGG + anchor), 100 nM annealed; ATP concentration: 500 uM; one replicate
How it was run: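 Imaging in selection buffer was followed by imaging after 15 min with 500 uM ATP at 22 °C, for Cy3-labelled switching-strand clusters annealed to 100 nM quencher-labelled ATP aptamer on a modified Illumina MiSeq flow-cell. Five of these buffer/ATP cycles ran, separated by NaOH stripping and re-annealing. The fluorescence ratio per cluster is summed target-cycle over summed buffer-cycle Cy3 intensity, averaged per switch-domain sequence; clusters outside 100-1000 RFU were removed.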
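Note: ATP exposure 15 min at 22 °C before imaging.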

TCGGATATAC
switch fluorescence ratio: 4.53

TATACCGCGG
switch fluorescence ratio: 0.928

TCTAATCATG
switch fluorescence ratio: 0.958

TGGACTTTG
switch fluorescence ratio: 1.01

TACCTTGCCA
switch fluorescence ratio: 1.07

TACACCTTGT
switch fluorescence ratio: 1

CAGGCATAAA
switch fluorescence ratio: 1.03

CGCTCGCGCC
switch fluorescence ratio: 1

GGACGAGGGC
switch fluorescence ratio: 0.971

GCGCCTTAGA
switch fluorescence ratio: 1.03

GCATACACAG
switch fluorescence ratio: 1.05

AGTGCTACTG
switch fluorescence ratio: 0.98

GGTTGTGCTC
switch fluorescence ratio: 0.982

CAATATTTGA
switch fluorescence ratio: 0.969

TGTAAGGATA
switch fluorescence ratio: 1.01

ACAAAAGCGC
switch fluorescence ratio: 1.03

CACATGATCA
switch fluorescence ratio: 1.02

AAGACTGGTT
switch fluorescence ratio: 0.98

GGATACATTG
switch fluorescence ratio: 0.979

TTATGTGGCG
switch fluorescence ratio: 1.05

CAGATGGCTT
switch fluorescence ratio: 1.03

TTTGATCGTG
switch fluorescence ratio: 1.01

ATCCACTGTA
switch fluorescence ratio: 1.29

ATGCTCGCTC
switch fluorescence ratio: 0.979

ATCATGAATT
switch fluorescence ratio: 0.987

TAGACATGTG
switch fluorescence ratio: 0.926

TGCTATGGTC
switch fluorescence ratio: 1.02

CCGATTTTCA
switch fluorescence ratio: 1.04

TCGTTTCTTA
switch fluorescence ratio: 0.954

AGGTCCATGG
switch fluorescence ratio: 1

GTTATTTATG
switch fluorescence ratio: 0.963

GGGCTAAGGT
switch fluorescence ratio: 1.03

CTTGTAACAG
switch fluorescence ratio: 1.04

ATTGGCAGCA
switch fluorescence ratio: 1

GTGGGTGGTT
switch fluorescence ratio: 0.997

GAGAGCGCCA
switch fluorescence ratio: 1.08

GGTCCCACCC
switch fluorescence ratio: 1.03

TGGAAGGACG
switch fluorescence ratio: 1.02

CTCCGCAGGG
switch fluorescence ratio: 5.46

AAACTCAGAG
switch fluorescence ratio: 0.961

TTGACACCGT
switch fluorescence ratio: 1.05

TTGACGTTGT
switch fluorescence ratio: 1.01

CATTTGTAGA
switch fluorescence ratio: 1.04

GTTGTAAGGA
switch fluorescence ratio: 1.01

TATATTCAAA
switch fluorescence ratio: 1.06

TGCATTAGAA
switch fluorescence ratio: 0.99

TTCGTATTGC
switch fluorescence ratio: 1.03

GGCCTACAAA
switch fluorescence ratio: 1

CGTTGAAG
switch fluorescence ratio: 0.958

ACGTAGAAAG
switch fluorescence ratio: 1.08

TGTGGGCGGC
switch fluorescence ratio: 1.03

AGACGCCCGT
switch fluorescence ratio: 1.01

AAAATGTCGC
switch fluorescence ratio: 1.07

GGTCGAGTGT
switch fluorescence ratio: 1

CCTGTCTCTA
switch fluorescence ratio: 1

ATTTGAATGT
switch fluorescence ratio: 1.03

AGACCTCATC
switch fluorescence ratio: 1.06

GTTATGCAT
switch fluorescence ratio: 1.03

GAAATATATG
switch fluorescence ratio: 1.03

TACTTAGGCG
switch fluorescence ratio: 0.997

TAAGGGGTG
switch fluorescence ratio: 0.989

GTACATTAGA
switch fluorescence ratio: 1.01

CGGGAAGCC
switch fluorescence ratio: 1.03

TAGGCGCTGT
switch fluorescence ratio: 1

CGGGCTGAGG
switch fluorescence ratio: 0.997

GATCCAGAC
switch fluorescence ratio: 1.04

ATAGGAAGCT
switch fluorescence ratio: 0.987

TCATTCATGC
switch fluorescence ratio: 1.04

GTCCGTAGGG
switch fluorescence ratio: 1.03

AACCGGCCAT
switch fluorescence ratio: 1.03

AACAGTAACT
switch fluorescence ratio: 1.08

TCATTTTTGT
switch fluorescence ratio: 0.996

GTCAGCGTCG
switch fluorescence ratio: 0.991

CTCACTATCT
switch fluorescence ratio: 1

GGTCTACCTC
switch fluorescence ratio: 1

GTTCGTTACG
switch fluorescence ratio: 1.02

TCACGTATGG
switch fluorescence ratio: 1.07

CTTTGAGGGA
switch fluorescence ratio: 1.03

GGTGGGAGGT
switch fluorescence ratio: 1.02

TGAGGATGTC
switch fluorescence ratio: 1.05

CCAGAGATGT
switch fluorescence ratio: 1

GGTAAGGGAG
switch fluorescence ratio: 0.994

GGATGTGTAG
switch fluorescence ratio: 0.949

CCTTCATGAA
switch fluorescence ratio: 1.01

GAAGTCAACG
switch fluorescence ratio: 0.971

ACGTTACCGC
switch fluorescence ratio: 1.55

AATGGTTGCG
switch fluorescence ratio: 0.997

CCGGCGAGGA
switch fluorescence ratio: 1.6

ATTGTAATTA
switch fluorescence ratio: 0.989

GCCCTTTTT
switch fluorescence ratio: 1

AGAGTTGTGT
switch fluorescence ratio: 0.979

GCGCCTGCGA
switch fluorescence ratio: 1.02

ATAGATACGG
switch fluorescence ratio: 1.05

TCCTGAAGGC
switch fluorescence ratio: 1

CGTTCTTAGG
switch fluorescence ratio: 0.949

GGTACGTGGA
switch fluorescence ratio: 1.01

CCATGGTTGC
switch fluorescence ratio: 1.06

CTTGTCAGCC
switch fluorescence ratio: 0.998

CACGTACTGC
switch fluorescence ratio: 1.58

TTCGTGGTAC
switch fluorescence ratio: 3.3

CGCTCACCCT
switch fluorescence ratio: 1.21

GGAGCTGCCT
switch fluorescence ratio: 1.05

AACCCACTAC
switch fluorescence ratio: 1.46

GTTCGGTCGG
switch fluorescence ratio: 1

AGTAATTAAG
switch fluorescence ratio: 1.02

TAACTGTGTC
switch fluorescence ratio: 1.03

TTGCCAGCCT
switch fluorescence ratio: 1.03

CCTTGGCCAT
switch fluorescence ratio: 1.27

TCACTAAATG
switch fluorescence ratio: 1.06

GTGAATCGCA
switch fluorescence ratio: 1.02

GACACTTCA
switch fluorescence ratio: 0.985

TCTTTGAGAG
switch fluorescence ratio: 0.994

GCTGGTAGGT
switch fluorescence ratio: 0.995

GGGCGCGTCA
switch fluorescence ratio: 0.976

TTATGCACTC
switch fluorescence ratio: 1.1

AGTATCAAGC
switch fluorescence ratio: 0.999

GGGGCGAGGC
switch fluorescence ratio: 1.05

AGAAAGACA
switch fluorescence ratio: 0.963

CGATATGAGA
switch fluorescence ratio: 1.02

AACGAATCAT
switch fluorescence ratio: 0.972

CCTCATCGA
switch fluorescence ratio: 1.95

GGCACCCCAT
switch fluorescence ratio: 1.07

CGACGGATCT
switch fluorescence ratio: 1.02

AGTTCTTTA
switch fluorescence ratio: 1.02

ACGTTCGGTG
switch fluorescence ratio: 1.03

AGGGTCGGCC
switch fluorescence ratio: 1.04

AGAGGGTTG
switch fluorescence ratio: 1.01

AGTGGGCGTC
switch fluorescence ratio: 0.994

GTGGGGCAGG
switch fluorescence ratio: 1.08

TTTGTGACCG
switch fluorescence ratio: 1.07

GAAAGTCTGA
switch fluorescence ratio: 0.996

ACTTCTGACT
switch fluorescence ratio: 1.06

GTTTAATTCG
switch fluorescence ratio: 1.04

GCGAGGCTGG
switch fluorescence ratio: 1.02

TAGCAAATCG
switch fluorescence ratio: 1.08

AACCGGTTCT
switch fluorescence ratio: 0.98

GGGGGTTTCC
switch fluorescence ratio: 1.02

TGCCCACAGC
switch fluorescence ratio: 0.999

TGTCTAAACG
switch fluorescence ratio: 0.987

GAGTACAGAG
switch fluorescence ratio: 1.04

CATAGGCTCT
switch fluorescence ratio: 0.965

TTCTAGCGTC
switch fluorescence ratio: 1.09

CATGGCACA
switch fluorescence ratio: 0.994

TGGCTTTTGA
switch fluorescence ratio: 1.01

CCACGGGTAA
switch fluorescence ratio: 1.04

GTTTTACAAC
switch fluorescence ratio: 1.04

AAGTTTGCAA
switch fluorescence ratio: 0.959

TTAGTTGCT
switch fluorescence ratio: 0.966

TGCCTTGGCC
switch fluorescence ratio: 0.993

GGGAAACAGT
switch fluorescence ratio: 1.01

TACAGAGGCG
switch fluorescence ratio: 1.03

GGCAATGGAA
switch fluorescence ratio: 1.02

CGTCGGTGCC
switch fluorescence ratio: 0.968

GGATCCGGGC
switch fluorescence ratio: 1.05

GCCATATCTA
switch fluorescence ratio: 0.911

TAAAATCGTG
switch fluorescence ratio: 1.01

AGTCCGAGAG
switch fluorescence ratio: 1.03
